Target: the molecule itself
Test: crystal structure; co-purified CapAB, 5.1 mg/mL; crystal from 0.02 M Na/K phosphate, 0.1 M Bis-Tris propane pH 7.5, 20% PEG3350, 294 K; 4.0 Å, molecular replacement; two CapAB dimers in the asymmetric unit

B1: Caprolactamase subunit β (CapB) from Pseudomonas jessenii GO3 (natural protein, UniProt A0A2W0FH34 1-581, looked up)
chain: MNTVDPITLAVVRGALETAQREMTLTLEKTSRSSVFNLAHDYSNALFDHLPEMILQGQDIPIHLGSLIPAMKCVAGFFGDEIAEGDVIYHNDPAYMGSHILDCCMYKPVFYKGELVFWTVCKGHLTDIGGPVPAGYNPDAKEIYAEGLRIPPVKLWAQGQRREDVINLLLTNMRARAYQEGDLNAQYGACSVGERHLIELLDRYGVDQVRACITELKDMADRHMRALLRDVPDGFYSGTAILEDSGHGLGELSITAQVEIRGDEAHVLIESPPQVPYFINSYAGNSISGVYLGLMMFAQVPPPYNEGLYRCVSVDLGPSGTLCNAQEPAPHVNCTTTPMETLADAVRLALEQAAPERVTASWGHASGINIAGHDPRNNNDEYVTMVLASVISGAGANKAMDGWPACGPLCCFGALMSGDIELLEYSYPVLIHRYSLMTDSGGAGEFRGGSGTRLELEPLKHAMTVVGFGEGRQLPTAGAAGAKNVLLEPKLGRLIHRHVDGEEDHYIQNTLLTAQPGERVINVNPGGGGYGDPLRRPLATVLADVRNGLVSIDGARLEYGVVIDGNGQLDEAATHAHRAAH
notes: untagged; residues 1-580 are in the crystal model; Untagged; Two copies of CapB form the dimeric core of the (αβ)2 tetramer; also called PjCapB; β subunit; source: E. coli C41(DE3), co-expressed with His-tagged CapA from pET20b(+)-CapBAHis; in cell-free extract, then purified with CapA (Ni-NTA; Superdex 200 gel filtration for crystallography)
In the case of B1, the “stoichiometry N” value is reported as 2.
